# Results: the supplement of paper PMC11417369
# ± gives the standard deviation of the averaged measurements. Some of the results follow.
# Test system: PfAP2-I AP2 domain 3 (GST-tagged)
# Experiment: gcPBM binding intensity (ln(normalized median fluorescence intensity)); higher = stronger DNA binding
# Procedure, shortened: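 An Agilent 4 × 180k array of primer-extended double-stranded 36-bp intergenic genomic probes, with negative controls, was incubated for 1 h with GST-tagged P. falciparum DNA-binding domains expressed in E. coli. Alexa488 anti-GST antibody detected bound protein, scanned at 488 nm. Binding intensity is the highest Masliner-normalised natural-log median intensity across replicate spots of either probe orientation.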
row,Sequence,gcPBM binding intensity (ln)
1,AATATGTCATATATGTGTACATATGCACAGATATTA [XGTACX_site951],8.45 ± 0.37
2,ATAAAAAGAAATCCAATACACACCTTCAAAATGGGT [CACACA_site1622],7.71 ± 0.72
3,TAATAAATAAATGACACACACACACCCAAAAAAAAA [CACACA_site2623],8.53 ± 0.39
4,AGCTATGTATTCTACACACACATACACCCATATATA [CACACA_site5827],8.21 ± 0.56
5,TTATTAACCTAAATTAGTACATATAATATAAAAAAT [XGTACX_site8661],7.88 ± 0.52
6,AAAATATTATCTAATTGTACTTATATAACTATATAT [XGTACX_site5699],7.64 ± 0.49
7,TTGAAATGCATGAACACACACAGCTATAAATGCATA [CACACA_site968],7.78 ± 0.45
8,ATACTAAGGAGAAAAGAAAAGTGAATTTATTCTATA [CACACA_negctrl_site1792],7.39 ± 0.67
9,AAATTTATGAACCTAGTGCAGAAATTAAAAAGATGA [GTGCAC_site9396],9.32 ± 0.16
10,AAACCGTGGGAGCACACACACACACGCGCACATATA [CACACA_site6288],8.54 ± 0.47
11,TGTTTCTAAAAAAAAGGTACACATATATATAATATA [XGTACX_site3217],7.93 ± 0.28
12,GTAACCCACCAAAATGCACACATTAAAAAAAAAAAA [CACACA_site1046],9.46 ± 0.37
13,TATATATTATATATATGTACATATTTATTTTATTTT [XGTACX_site6989],7.79 ± 0.3
14,AATACCGGAAAGCAAACACACATTTGAAAACCATAA [CACACA_site7761],7.78 ± 0.69
15,AAAAAATTTCAAATGACATAATGTAATTTCCCTTTT [GTGCAC_negctrl_site673],7.26 ± 0.69
16,TTTATCAAAATAAATGCACACAAATTGCACATATCT [CACACA_site8281],10.31 ± 0.035
17,ATAGTTTATACAAATAGTACGCACAAAAAAAAATAA [XGTACX_site6727],8.34 ± 0.28
18,TATATATAAACAAAATGTACATATTTGAGATACCCT [XGTACX_site2195],7.93 ± 0.47
19,ACACATACATACATATGTACATATATACATATATAC [XGTACX_site5559],8.45 ± 0.83
20,CAATACTATTATTATAGTACGTATAAAATTATATAT [XGTACX_site4950],7.71 ± 0.46
21,TACAAAAAAGAAGATATTCAAACAAAAACAAAAAAA [CACACA_negctrl_site1126],7.5 ± 0.56
22,AGTAAACGATGATGTTGTACAAAAAGGATAATTTAA [XGTACX_site6698],8.07 ± 0.66
23,TTTTTATTTTTTATGTAATTTAAATAATTATTCAAA [CACACA_negctrl_site1549],7.5 ± 0.54

row,Sequence,gcPBM binding intensity (ln)
1,GTATTCTTCTCTCCGTGTACATATATATGTATATAT [XGTACX_site803],8.47 ± 0.6
2,TATATATATATGCTACGTACATATATATTATATATA [XGTACX_site7894],9.1 ± 0.49
3,TATCATAATAGACACAGTACATATATGTCTTAAATT [XGTACX_site8775],7.63 ± 0.54
4,AATATCTTAGTGGATACACACATATAAATGTGTATT [CACACA_site6367],7.56 ± 0.54
5,CTTTCAATTTTTTTCTGTACCAATAAAAAATATAAA [XGTACX_site2120],7.88 ± 0.5
6,ATAATGTTTTATAATACACACATTATATATATAAAT [CACACA_site6101],8.04 ± 0.42
7,ATATTTATGTAAAAAAGTACATACAATTATATATGT [XGTACX_site3750],7.74 ± 0.4
8,GATTACAAAAAAAATACACACAAAAAAAAAAAGGAA [CACACA_site2096],7.59 ± 0.57
9,ACATGAATTTATATGTGTACTAACTATATTCTTAAA [XGTACX_site5966],7.8 ± 0.45
10,TATATACAATATAGGTGTACATTTTTTTATCTATTT [XGTACX_site8431],7.83 ± 0.53
11,TCTGGCATATAATATTGTACACATATATATATATAT [XGTACX_site8182],9.15 ± 0.45
12,TATCTGTATTTATTCACACATATAAAATATAATTAA [CACACA_site5560],7.67 ± 0.38
13,ATGAATAAATAGGTCACACACAAATATTTATAAATA [CACACA_site7186],7.8 ± 0.62
14,GATATGAATATAGGTTGTACTATATATAAAGTATGT [XGTACX_site1877],7.93 ± 0.59
15,AACGGGGGTAGTTTTATGCACACGTTTATTAATGCT [CACACA_site3173],10.16 ± 0.028
16,TATATGTTAATTTTTTTTTTTTTTTTTTTTTTTATA [CACACA_negctrl_site62],7.17 ± 0.28
17,AAAGTACAAGTATAATCACACGTGTCTATTATATAC [CACACA_site4507],7.71 ± 0.57
18,AAAAAAAAAAAAAAAACACACATTTGAAAGAAAGAA [CACACA_site3339],8.67 ± 0.41
19,TACACCCATGGACACACACACACGCATAAAAAAAAA [CACACA_site4933],8.32 ± 0.4
20,ATTTTTATTTTCTTTACACACCACATAATTTTTTTT [CACACA_site6092],8.22 ± 0.47
21,CATAAGAGGAACTTTTGTACTTATATGTATATAGTA [XGTACX_site5836],7.5 ± 0.42
22,TATATCGTTATATAAACACACAATATGTTTTTTATA [CACACA_site7730],7.53 ± 0.46
23,CTTTTATGAAACAGTGCACACATAAAAATATATACA [CACACA_site8981],10.7 ± 0.33

row,Sequence,gcPBM binding intensity (ln)
1,GCCACACTTTTCTGCACACATAAAAAATATATAAAT [CACACA_site578],9.62 ± 0.19
2,ATTTATTGACTATTTACACACATATTTATTAGAATA [CACACA_site6863],7.84 ± 0.61
3,GGGAGGATAGTTCACAGTACCCAGTAACTCTACGGA [XGTACX_site2558],7.73 ± 0.44
4,ATGATACATAAAGAATATAAAACATGAAATATAATA [CACACA_negctrl_site1461],7.64 ± 0.49
5,ATATATAATATATATGCATGTGACATTAATAATATA [TGCATGCA_site880],7.63 ± 0.49
6,ATATGAAAGGTGTACACACGCACACCCAAAAAAATA [CACACA_site2911],8.25 ± 0.3
7,TAATTTAAAAATATAAATGTTTCACTTATATATTTT [TGCATGCA_negctrl_site399],7.15 ± 0.49
8,AACTGAGAAACCGAAGTGCAATATGTATATATACAT,10.5 ± 0.2
9,TTTTTTACGCATAACTTAATATGAGAATCCCTTTCT [GTGCAC_negctrl_site522],7.71 ± 0.65
10,CCACACTTAAAATACACACACACCAAAAAAAAAAAA [CACACA_site2709],8.21 ± 0.79
11,AACACTTTAATTTATGCACACATATGGAACAACAGC [CACACA_site8241],10 ± 0.22
12,AGATATATATTTTATTGTACACATTAAAGTATAAAA [XGTACX_site7194],7.91 ± 0.24
13,AACATTTTTAGATTATATTATTAAATAAGTAACTGC [XGTACX_negctrl_site326],7.68 ± 0.44
14,TATGTATTTATATATACACACTTCTGTGATACGAAA [CACACA_site5128],7.49 ± 0.59
15,AAGTTTTTTATTTTTTGTACATAAAAAATAATAATT [XGTACX_site1755],7.76 ± 0.42
16,TTTTTGTTTTTTTTTTGTACATATATATAAAAAATA [XGTACX_site1214],7.96 ± 0.37
17,TTTTTTTTAATATTTTACATTGTCTGTTAACAAATA [CACACA_negctrl_site599],7.7 ± 0.66
18,TTTATATTTATCCAAAGTACTTTTTAAAAACATACC [XGTACX_site4518],7.91 ± 0.35
19,ATGAACATTTATAAATGTACTCACATATATATATTT [XGTACX_site6692],7.85 ± 0.47
20,AAAATAATATTTAATACACACATAATTATAATATAA [CACACA_site782],7.72 ± 0.47
21,ATTTTTAATTGAATCACACATTTCCTTTCTTTTGTG [CACACA_site4438],7.67 ± 0.79
22,ATTAAAAATAAGAAGAGTACATATAATATATATACA [XGTACX_site3092],7.51 ± 0.28
23,ACCTTTTGGATTATATGTACATATATATATATATAT [XGTACX_site2687],9.54 ± 0.18

row,Sequence,gcPBM binding intensity (ln)
1,TTAAAAAGAAAGTTCACACACATATATATGACGGAA [CACACA_site2602],7.92 ± 0.59
2,AGAATACATCTATGAACACACAGAGTTTTAAAAAAT [CACACA_site5514],7.53 ± 0.64
3,ATATTATTTTAAAGTACACACATATATTGATATATA [CACACA_site7153],8.12 ± 0.27
4,TTTTTCATTTAACAGAAGGGAGATAAAAAAAAAAAA [TGCATGCA_negctrl_site261],8.15 ± 0.73
5,GTATGTATGTATGTATGTACGTATGTATGTATATAT [XGTACX_site3369],9.04 ± 0.49
6,AATAATTATAAAAAATGTACAAAAAAAAAAAAAAAA [XGTACX_site3681],7.88 ± 0.54
7,GCAAATCATGCTATGGTGCATATGTAAGATGAGCAT,10.4 ± 0.28
8,TTGTGATTATTATATTGTACAATAAGTATTAAAGAA [XGTACX_site2753],8.2 ± 0.45
9,ATATATAATACTACAGTGCAATATATTATATTTGTT,10.7 ± 0.61
10,TTCCTCTTAAAATATACACACTGATTTAAGAAAAAA [CACACA_site5770],7.75 ± 0.4
11,ATACTAAATATAAATTGTACTTTATTTATATTGAGA [XGTACX_site8699],7.68 ± 0.26
12,TATATATATATATATATACACACTATATAATTCAAA [CACACA_site1023],9.31 ± 0.39
13,TTTTTTTTTTTTTAGAGTACACACTTTTTTACATTT [XGTACX_site8159],8.15 ± 0.49
14,TTAACATAGATATATACACACCAATGATGGCATTTA [CACACA_site6840],7.61 ± 0.47
15,AAATAAAAGTTCACCTGTACACACATATATATATGT [XGTACX_site3513],8.03 ± 0.5
16,CATAAAATATAAAACACACACACATATATTTATATA [CACACA_site6247],7.61 ± 0.43
17,ACCTTATTTAGTTATAGTACACAAAGTATTAAACAT [XGTACX_site8418],8.46 ± 0.46
18,TTTTTTTTTTTCTTCACACACAGTACTACTATTTAT [CACACA_site2409],8.15 ± 0.65
19,GCGAATAATATGGACATACACACATATACATACATA [CACACA_site2115],8.13 ± 0.53
20,TATATATATTTTTGTGTGCACTATAATATGAAAATA,11.4 ± 0.45
